This is one part of the list.
B1: PhoQ; a variant is named by its letters at X, in order, P23837 (parent)
chain: MKKLLRLFFPLSLRVRFLLATAAVVLVLSLAYGMVALIGYSVSFDKTTFRLLRGESNLFYTLAKWENNKLHVELPENIDKQSPTMTLIYDENGQLLWAQRDVPWLMKMIQPDWLKSNGFHEIEADVNDTSLLLSGDHSIQQQLQEVREDDDDAEMTHSVAVNVYPATSRMPKLTIVVVDTIPVELKSSYMVWSWFIYVLSANLLLVIPLLWVAAWWSLRPIEALAKEVRELEEHNRELLNPATTRELTSLVRNLNRLLKSERERYDKYRTTLTDLTHSLKTPLXXLQXXLRSLRSEKMSVSDAEPVMLEQISRISQQIGYYLHRASMRGGTLLSRELHPVAPLLDNLTSALNKVYQRKGVNISLDISPEISFVGEQNDFVEVMGNVLDNACKYCLEFVEISARQTDEHLYIVVEDDGPGIPLSKREVIFDRGQRVDTLRPGQGVGLAVAREITEQYEGKIVAGESMLGGARMEVIFGRQHSAPKDE

Variants of: B1
Assay: enrichment ratio after two sorts for PhoP signalling (ratio (wild type AVST 3.29)); higher = more functional
Settings: with PhoP (E. coli)

| Variant | enrichment ratio |
| --- | --- |
| FSAL | 0.667 |
| HAGY | ≤ 0.25 |
| EVEL | ≤ 0.25 |
| FFHH | 0.731 |
| IAMD | ≤ 0.25 |
| NPTI | ≤ 0.25 |
| TSQD | ≤ 0.25 |
| LYFP | 0.276 |
| DWAR | ≤ 0.25 |
| PFRA | ≤ 0.25 |
| YCFP | ≤ 0.25 |
| IPHW | ≤ 0.25 |
| LQMR | ≤ 0.25 |
| WNDC | ≤ 0.25 |
| WIPE | ≤ 0.25 |
| MSWE | ≤ 0.25 |
| VTIQ | ≤ 0.25 |
| HHYR | ≤ 0.25 |
| SLRF | ≤ 0.25 |
| SMVS | 4.14 |
| GNHS | ≤ 0.25 |
| FWPY | ≤ 0.25 |
| YESG | 0.306 |
| IIQV | ≤ 0.25 |
| MDHD | ≤ 0.25 |

| Variant | enrichment ratio |
| --- | --- |
| QWLN | ≤ 0.25 |
| DWAD | ≤ 0.25 |
| EGTK | ≤ 0.25 |
| LMII | ≤ 0.25 |
| FLLW | ≤ 0.25 |
| RLIY | ≤ 0.25 |
| AAVV | ≤ 0.25 |
| WFCR | ≤ 0.25 |
| ARRK | ≤ 0.25 |
| PGKP | ≤ 0.25 |
| PFVY | ≤ 0.25 |
| VNQA | ≤ 0.25 |
| PNED | ≤ 0.25 |
| LSPT | ≤ 0.25 |
| TKPL | ≤ 0.25 |
| RFTH | ≤ 0.25 |
| GWES | ≤ 0.25 |
| PTWD | ≤ 0.25 |
| ILNL | ≤ 0.25 |
| PVYD | ≤ 0.25 |
| PYST | ≤ 0.25 |
| VIRS | ≤ 0.25 |
| FSMA | 0.794 |
| SNAF | 8.34 |
| SNFN | ≤ 0.25 |

| Variant | enrichment ratio |
| --- | --- |
| DLYE | ≤ 0.25 |
| FVHH | ≤ 0.25 |
| SMPL | ≤ 0.25 |
| WEYR | ≤ 0.25 |
| QMWD | ≤ 0.25 |
| TLSC | 8.65 |
| LKGM | ≤ 0.25 |
| TAAM | 13.6 |
| GWGQ | ≤ 0.25 |
| GYPN | ≤ 0.25 |
| GFHY | ≤ 0.25 |
| GWDD | ≤ 0.25 |
| RCLM | ≤ 0.25 |
| MHSC | ≤ 0.25 |
| PYAQ | ≤ 0.25 |
| ECWI | ≤ 0.25 |
| KQHS | ≤ 0.25 |
| QNQS | ≤ 0.25 |
| EHYH | ≤ 0.25 |
| YASL | ≤ 0.25 |
| TFWV | ≤ 0.25 |
| EWMS | ≤ 0.25 |
| DFQW | ≤ 0.25 |
| FLFE | ≤ 0.25 |
| ICPP | ≤ 0.25 |

| Variant | enrichment ratio |
| --- | --- |
| IRLD | ≤ 0.25 |
| RPKL | ≤ 0.25 |
| YWGF | ≤ 0.25 |
| ATYK | ≤ 0.25 |
| VRGV | ≤ 0.25 |
| HRRG | ≤ 0.25 |
| PVQS | ≤ 0.25 |
| NDNG | ≤ 0.25 |
| LGWV | ≤ 0.25 |
| VTGR | ≤ 0.25 |
| TTEY | ≤ 0.25 |
| NRVY | ≤ 0.25 |
| PWSF | ≤ 0.25 |
| YWRA | ≤ 0.25 |
| IWTM | ≤ 0.25 |
| VVMG | ≤ 0.25 |
| LQFA | ≤ 0.25 |
| STCR | 4.44 |
| IMLE | ≤ 0.25 |
| GVLP | ≤ 0.25 |
| WTYE | ≤ 0.25 |
| CVLI | ≤ 0.25 |
| VDLG | ≤ 0.25 |
| RRLW | ≤ 0.25 |
| FTMA | ≤ 0.25 |

| Variant | enrichment ratio |
| --- | --- |
| VGTA | ≤ 0.25 |
| HCFH | ≤ 0.25 |
| GHFS | ≤ 0.25 |
| MNCV | 5.24 |
| MIFK | 1.24 |
| VYFM | ≤ 0.25 |
| AFNY | ≤ 0.25 |
| YDNA | ≤ 0.25 |
| PSQK | ≤ 0.25 |
| LYYN | ≤ 0.25 |
| MPSC | ≤ 0.25 |
| AWQT | ≤ 0.25 |
| AWCP | ≤ 0.25 |
| FIQA | ≤ 0.25 |
| PPKR | ≤ 0.25 |
| PCPP | ≤ 0.25 |
| ADTT | ≤ 0.25 |
| DMHQ | ≤ 0.25 |
| NKDC | ≤ 0.25 |
| TMNK | ≤ 0.25 |
| KHTV | ≤ 0.25 |
| NQQS | ≤ 0.25 |
| LEDW | ≤ 0.25 |
| KWGY | ≤ 0.25 |
| YQFL | ≤ 0.25 |

| Variant | enrichment ratio |
| --- | --- |
| WPYN | ≤ 0.25 |
| QPKI | ≤ 0.25 |
| QFYG | ≤ 0.25 |
| QSFL | 7.67 |
| DLMN | ≤ 0.25 |
| VCVV | ≤ 0.25 |
| VQVN | ≤ 0.25 |
| RKKS | ≤ 0.25 |
| SYHR | ≤ 0.25 |
| AKHI | ≤ 0.25 |
| RDKK | ≤ 0.25 |
| QKYD | ≤ 0.25 |
| MCAN | 22.5 |
| FHVC | ≤ 0.25 |
| FRAC | ≤ 0.25 |
| EMGD | ≤ 0.25 |
| PQSL | ≤ 0.25 |
| AACA | 7.7 |
| DTFF | ≤ 0.25 |
| LLQV | ≤ 0.25 |
| VNWW | ≤ 0.25 |
| GKMI | ≤ 0.25 |
| SFKI | ≤ 0.25 |
| TAHI | 11 |
| ANRN | ≤ 0.25 |

| Variant | enrichment ratio |
| --- | --- |
| MPPV | ≤ 0.25 |
| SICK | 14.6 |
| LGDW | ≤ 0.25 |
| REDA | ≤ 0.25 |
| VWDG | ≤ 0.25 |
| RPYK | ≤ 0.25 |
| QSAC | ≤ 0.25 |
| VEIA | ≤ 0.25 |
| VDKF | ≤ 0.25 |
| NCSK | ≤ 0.25 |
| HMCD | ≤ 0.25 |
| NSYC | ≤ 0.25 |
| KGVA | ≤ 0.25 |
| LCFW | ≤ 0.25 |
| MDYT | ≤ 0.25 |
| TNMH | 15.7 |
| HICN | ≤ 0.25 |
| PLIW | ≤ 0.25 |
| SENW | ≤ 0.25 |
| LING | ≤ 0.25 |
| FYAD | ≤ 0.25 |
| SNGQ | 6.34 |
| FDQP | ≤ 0.25 |
| YETQ | ≤ 0.25 |
| VNSL | 2.36 |

| Variant | enrichment ratio |
| --- | --- |
| LRFT | ≤ 0.25 |
| VMIM | ≤ 0.25 |
| DGGP | ≤ 0.25 |
| SSVD | ≤ 0.25 |
| PFYH | ≤ 0.25 |
| VPDS | ≤ 0.25 |
| ALWY | ≤ 0.25 |
| DKSY | ≤ 0.25 |
| DVHH | ≤ 0.25 |
| EFGY | ≤ 0.25 |
| KAQH | ≤ 0.25 |
| GMHC | ≤ 0.25 |
| AFLP | ≤ 0.25 |
| EYTM | ≤ 0.25 |
| EGMF | ≤ 0.25 |
| MEGG | ≤ 0.25 |
| PRSN | ≤ 0.25 |
| STIR | ≤ 0.25 |
| MELH | 6.92 |
| VIST | ≤ 0.25 |

Reference: a collection of fitness landscapes (doi:10.1126/science.1257360)
